Source: paper PMC12655037, “Mitochondrial-Targeted Triphenylphosphonium-Conjugated Ionophores with Enhanced Cytotoxicity in Cancer Cells” (Molecules, 2025)

What was measured:
[1] = system: HaCaT human immortal keratinocytes; assay: cells; format: cell-based; conditions: 72 h, read-out: IC50 HaCaT (normal cells)
[2] = system: whole non-permeabilized A549 cells; conditions: for effect on oxygen flux (cellular respiration rate): A549 cells, 0.1, 0.3 and 1 µM, normalized to baseline; for oxygen flux after FCCP addition: A549 cells, FCCP added after the compound
[3] = system: V79 Chinese hamster lung fibroblasts; assay: MTT assay, V79 cells; format: cell-based; conditions: Cricetulus griseus, Fibroblast, 72 h, read-out: IC50 V79 (normal cells)
MDA-MB-231 cells [4] = assay: MitoTracker Red CMXRos flow cytometry (mitochondrial membrane potential), MDA-MB-231; conditions: MDA-MB-231, 48 h at IC50 concentration
[5] = system: PC3 human metastatic prostate cancer cells; assay: MTT assay, PC3 cells; format: cell-based; conditions: for IC50: Homo sapiens, PC-3, MTT, 72 h, mean ± SD
[6] = system: MiaPaCa human pancreas cancer cells; assay: MTT assay, MiaPaCa cells; format: cell-based; conditions: for IC50: Homo sapiens, MIA PaCa-2, MTT, 72 h, mean ± SD
[7] = system: A549 human lung cancer cells; assay: MTT assay, A549 cells; format: cell-based; conditions: for IC50: Homo sapiens, A549, MTT, 72 h, mean ± SD
[8] = system: SW620 human metastatic colon cancer cells; assay: MTT assay, SW620 cells; format: cell-based; conditions: for IC50: Homo sapiens, SW-620, MTT, 72 h, mean ± SD
[9] = system: MDA-MB-231 human breast cancer cells; assay: MTT assay, MDA-MB-231 cells; format: cell-based; conditions: for IC50: Homo sapiens, MDA-MB-231, MTT, 72 h, mean ± SD
[10] = system: SW480 human primary colon cancer cells; assay: MTT assay, SW480 cells; format: cell-based; conditions: for IC50: Homo sapiens, SW480, MTT, 72 h, mean ± SD
MDA-MB-231 cells [11] = assay: MitoTracker Green FM flow cytometry (mitochondrial mass), MDA-MB-231; conditions: MDA-MB-231, 48 h at IC50 concentration

Compound: CC[C@@H](C(=O)[C@@H](C)[C@@H](O)[C@H](C)[C@@H]1O[C@@H]([C@@H](CC)C(=O)O)CC[C@@H]1C)[C@H]1O[C@]2(C=C[C@H](NC(=O)CCC[P+](c3ccccc3)(c3ccccc3)c3ccccc3)[C@]3(CC[C@@](C)([C@H]4CC[C@](O)(CC)[C@H](C)O4)O3)O2)[C@H](C)C[C@@H]1C [1e]
IC50 [1]: 8300 ± 700 nM
effect on oxygen flux (cellular respiration rate) [2]: did not cause any changes
IC50 [3]: 8800 ± 400 nM

Compound: CC[C@@H](C(=O)[C@@H](C)[C@@H](O)[C@H](C)[C@@H]1O[C@@H]([C@@H](CC)C(=O)O)CC[C@@H]1C)[C@H]1O[C@]2(C=C[C@H](n3cc(CNC(=O)CCC[P+](c4ccccc4)(c4ccccc4)c4ccccc4)nn3)[C@]3(CC[C@@](C)([C@H]4CC[C@](O)(CC)[C@H](C)O4)O3)O2)[C@H](C)C[C@@H]1C [1c]
IC50 [1]: 7100 ± 1200 nM
IC50 [3]: 17000 ± 2800 nM

Compound: CCC1(C2OC(C3OC(O)(COC(=O)CCC(=O)OCCC[P+](c4ccccc4)(c4ccccc4)c4ccccc4)C(C)CC3C)CC2C)CCC(C2(C)CCC3(CC(O)C(C)C(C(C)C(OC)C(C)C(=O)OCCC[P+](c4ccccc4)(c4ccccc4)c4ccccc4)O3)O2)O1 (stereo not drawn) [2f]
IC50 [1]: 300 ± 100 nM
MTRed CMXRos positive stained cells (MDA-MB-231 cells [4]): 15.5%
effect on oxygen flux (cellular respiration rate) [2]: strongest effect
IC50 [3]: 3200 ± 1100 nM

IC50 [5]: 600 ± 20 nM
IC50 [6]: 1100 ± 100 nM
IC50 [7]: 600 ± 200 nM
IC50 [8]: 300 ± 80 nM
IC50 [9]: 800 ± 30 nM
IC50 [10]: 300 ± 80 nM
Compound: COc1cccc2c1C(=O)c1c(O)c3c(c(O)c1C2=O)C[C@@](O)(C(=O)CO)C[C@@H]3O[C@H]1C[C@H](N)[C@H](O)[C@H](C)O1 [DOX, Doxorubicin, reference compound]
IC50 ([1]; MTT, mean ± SD): 300 ± 10 nM
Selectivity index (SI) HaCaT / PC3 ([5]; SI = IC50 HaCaT/IC50 PC3): 0.5
Selectivity index (SI) V79 / PC3 ([5]; SI = IC50 V79/IC50 PC3): 3.3
Selectivity index (SI) HaCaT / MiaPaCa ([6]; SI = IC50 HaCaT/IC50 MiaPaCa): 0.3
Selectivity index (SI) V79 / MiaPaCa ([6]; SI = IC50 V79/IC50 MiaPaCa): 1.8
Selectivity index (SI) HaCaT / A549 ([7]; SI = IC50 HaCaT/IC50 A549): 0.5
Selectivity index (SI) V79 / A549 ([7]; SI = IC50 V79/IC50 A549): 3.3
Selectivity index (SI) HaCaT / SW620 ([8]; SI = IC50 HaCaT/IC50 SW620): 1.0
Selectivity index (SI) V79 / SW620 ([8]; SI = IC50 V79/IC50 SW620): 6.7
Selectivity index (SI) HaCaT / MDA-MB-231 ([9]; SI = IC50 HaCaT/IC50 MDA-MB-231): 0.4
Selectivity index (SI) V79 / MDA-MB-231 ([9]; SI = IC50 V79/IC50 MDA-MB-231): 2.5
IC50 ([3]; MTT, mean ± SD): 2000 ± 30 nM
Selectivity index (SI) V79 / SW480 ([10]; SI = IC50 V79/IC50 SW480): 6.7
Selectivity index (SI) HaCaT / SW480 ([10]; SI = IC50 for normal cell line (HaCaT)/IC50 for cancer cell line (SW480)): 1.0

Compound: CC[C@@H](C(=O)[C@@H](C)[C@@H](O)[C@H](C)[C@@H]1O[C@@H]([C@@H](CC)C(=O)OCCCCCC[P+](c2ccccc2)(c2ccccc2)c2ccccc2)CC[C@@H]1C)[C@H]1O[C@]2(C=C[C@@H](OC(=O)CCC(=O)OCCCCCC[P+](c3ccccc3)(c3ccccc3)c3ccccc3)[C@]3(CC[C@@](C)([C@H]4CC[C@](O)(CC)[C@H](C)O4)O3)O2)[C@H](C)C[C@@H]1C [1f]
effect on oxygen flux (cellular respiration rate) [2]: increased cellular respiration
oxygen flux after FCCP addition [2]: reduction in the respiration rate

Compound: CC[C@@H](C(=O)[C@@H](C)[C@@H](O)[C@H](C)[C@@H]1O[C@@H]([C@@H](CC)C(=O)O)CC[C@@H]1C)[C@H]1O[C@]2(C=C[C@H](n3cc(C[P+](c4ccccc4)(c4ccccc4)c4ccccc4)nn3)[C@]3(CC[C@@](C)([C@H]4CC[C@](O)(CC)[C@H](C)O4)O3)O2)[C@H](C)C[C@@H]1C [1a]
IC50 [1]: 3800 ± 300 nM
cells positive for MTGreen fluorescence (MDA-MB-231 cells [11]): 63.03%
effect on oxygen flux (cellular respiration rate) [2]: Significant decrease in oxygen flux
IC50 [3]: 4800 ± 600 nM

Compound: CCCC[P+](CCCC)(CCCC)Cc1cn([C@H]2C=C[C@]3(O[C@H]([C@@H](CC)C(=O)[C@@H](C)[C@@H](O)[C@H](C)[C@@H]4O[C@@H]([C@@H](CC)C(=O)O)CC[C@@H]4C)[C@@H](C)C[C@H]3C)O[C@@]23CC[C@@](C)([C@H]2CC[C@](O)(CC)[C@H](C)O2)O3)nn1 [1d]
IC50 [1]: 2400 ± 100 nM
effect on oxygen flux (cellular respiration rate) [2]: increased cellular respiration
oxygen flux after FCCP addition [2]: uncoupled mitochondria far more
IC50 [3]: 4800 ± 200 nM

Compound: CC[C@@]1([C@@H]2O[C@@H]([C@H]3O[C@@](O)(CO)[C@H](C)C[C@@H]3C)C[C@@H]2C)CC[C@H]([C@]2(C)CC[C@]3(C[C@H](O)[C@@H](C)[C@@H]([C@@H](C)[C@@H](OC)[C@H](C)C(=O)O)O3)O2)O1 [MON, Monensin A, reference compound]
IC50 [5]: 3400 ± 1000 nM
IC50 [6]: 1100 ± 200 nM
IC50 [7]: 2600 ± 1000 nM
IC50 [8]: 2700 ± 100 nM
IC50 [9]: 4900 ± 300 nM
IC50 ([3]; MTT, mean ± SD): 3600 ± 500 nM
IC50 [10]: 2500 ± 200 nM

Compound: CC[C@@H](C(=O)[C@@H](C)[C@@H](O)[C@H](C)[C@@H]1O[C@@H]([C@@H](CC)C(=O)O)CC[C@@H]1C)[C@H]1O[C@]2(C=C[C@H](n3cc(COC(=O)CCC[P+](c4ccccc4)(c4ccccc4)c4ccccc4)nn3)[C@]3(CC[C@@](C)([C@H]4CC[C@](O)(CC)[C@H](C)O4)O3)O2)[C@H](C)C[C@@H]1C [1b]
IC50 [1]: 2800 ± 200 nM
IC50 [3]: 4500 ± 400 nM

Read-outs that look alike come from different tables or passages of the source. One block for each molecule: values may come before it.
